These are yes or no findings as the source states them, for the method shown. Binding seen in cells or lysates may run through a third protein. Some results given as binding are weak or reduced against the parent protein; the word gives no strength. For some assays here: Sequences can lack the tags named with a protein.
Assays:
[1] = biological target: Myc-tagged full-length RET (long isoform, RET 51), wild type (UniProt P07949); test: co-IP; U-2 OS cells transfected with HA-GRP78 and Myc-RET or Myc-RET mutants; MG132 20 μM for 4 h (Figure 7B); lysates precipitated with anti-Myc antibody
Myc-tagged RET-G93S = Myc-tagged RET-G93S (UniProt P07949); test: as above
[2] = biological target: Myc-tagged full-length RET (long isoform, RET 51), wild type (UniProt P07949); test: co-IP; U-2 OS cells co-transfected with FLAG-ATF4, Myc-RET and HA-GRP78; extracts precipitated with anti-Myc antibody; competition
[3] = biological target: Myc-tagged full-length RET (long isoform, RET 51), wild type (UniProt P07949); test: co-IP; HEK293T cells with ATF4, RET and GRP78 (Figure S6D); competition
recombinant GST-ATF4 = recombinant GST-ATF4 (UniProt P18848); test: pull-down; GST or recombinant GST-ATF4 immobilized on glutathione-agarose beads, incubated at 4 °C for 2 h with whole-cell extracts of U-2 OS cells expressing WT RET or mutants; immunoblot; only the target purified
HA-Cbl-c [4] = biological target: T1, HA-Cbl-c (UniProt Q9ULV8); test: co-IP; U-2 OS/BTZ cells with HA-Cbl-c after knockdown of ATF4, treated with 20 μM MG132 for 4 h; endogenous RET with HA-Cbl-c
T1 sequence: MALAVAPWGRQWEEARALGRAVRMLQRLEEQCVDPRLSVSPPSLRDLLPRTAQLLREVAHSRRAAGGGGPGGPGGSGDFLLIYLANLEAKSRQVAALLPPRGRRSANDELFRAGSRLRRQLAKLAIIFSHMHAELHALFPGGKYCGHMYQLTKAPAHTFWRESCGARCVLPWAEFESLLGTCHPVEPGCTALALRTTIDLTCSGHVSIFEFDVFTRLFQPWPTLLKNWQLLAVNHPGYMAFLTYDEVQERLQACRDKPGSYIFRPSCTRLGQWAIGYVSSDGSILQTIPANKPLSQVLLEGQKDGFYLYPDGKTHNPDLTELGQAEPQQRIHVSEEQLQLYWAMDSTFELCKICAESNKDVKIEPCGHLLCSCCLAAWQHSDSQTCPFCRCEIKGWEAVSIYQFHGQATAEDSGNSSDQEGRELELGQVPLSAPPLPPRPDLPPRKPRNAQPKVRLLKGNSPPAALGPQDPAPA

Protein sequences, listed by entry. Tags and fused reporters are not part of them. Lines headed by an entry give the natural chain unless they say otherwise; changes in a name come on top. Chains listed by the source or under a name are the forms on record and can include a tag or linker. Residues count along the entry.
Myc-tagged full-length RET (long isoform, RET 51), wild type (P07949, residues 29-1114): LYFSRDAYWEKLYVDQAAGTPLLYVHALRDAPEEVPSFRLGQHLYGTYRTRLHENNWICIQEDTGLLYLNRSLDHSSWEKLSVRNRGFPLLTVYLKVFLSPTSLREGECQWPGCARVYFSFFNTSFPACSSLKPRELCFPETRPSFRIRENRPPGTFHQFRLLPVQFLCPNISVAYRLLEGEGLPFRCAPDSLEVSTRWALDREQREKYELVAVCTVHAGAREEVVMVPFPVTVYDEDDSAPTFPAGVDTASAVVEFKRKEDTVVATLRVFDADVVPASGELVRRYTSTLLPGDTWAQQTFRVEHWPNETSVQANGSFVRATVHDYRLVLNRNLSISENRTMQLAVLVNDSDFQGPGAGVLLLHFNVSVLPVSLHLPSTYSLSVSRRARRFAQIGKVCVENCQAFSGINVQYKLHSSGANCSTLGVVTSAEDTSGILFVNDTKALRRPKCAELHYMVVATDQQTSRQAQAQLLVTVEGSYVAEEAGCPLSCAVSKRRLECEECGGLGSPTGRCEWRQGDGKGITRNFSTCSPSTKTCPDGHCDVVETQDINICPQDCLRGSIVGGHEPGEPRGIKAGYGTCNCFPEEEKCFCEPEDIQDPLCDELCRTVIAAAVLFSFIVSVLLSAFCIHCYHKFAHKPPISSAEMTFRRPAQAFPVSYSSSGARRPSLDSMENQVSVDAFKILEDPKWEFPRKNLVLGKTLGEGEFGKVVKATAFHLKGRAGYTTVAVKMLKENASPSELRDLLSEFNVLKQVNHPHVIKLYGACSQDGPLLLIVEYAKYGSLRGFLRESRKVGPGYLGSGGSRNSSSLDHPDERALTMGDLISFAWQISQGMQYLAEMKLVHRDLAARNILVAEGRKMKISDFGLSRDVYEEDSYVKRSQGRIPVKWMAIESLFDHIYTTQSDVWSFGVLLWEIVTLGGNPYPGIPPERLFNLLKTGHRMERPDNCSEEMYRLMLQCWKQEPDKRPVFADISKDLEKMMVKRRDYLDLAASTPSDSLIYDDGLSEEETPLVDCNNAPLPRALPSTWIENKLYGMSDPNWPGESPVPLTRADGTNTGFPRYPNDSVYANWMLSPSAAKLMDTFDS
Myc-tagged RET-G93S (P07949, form named): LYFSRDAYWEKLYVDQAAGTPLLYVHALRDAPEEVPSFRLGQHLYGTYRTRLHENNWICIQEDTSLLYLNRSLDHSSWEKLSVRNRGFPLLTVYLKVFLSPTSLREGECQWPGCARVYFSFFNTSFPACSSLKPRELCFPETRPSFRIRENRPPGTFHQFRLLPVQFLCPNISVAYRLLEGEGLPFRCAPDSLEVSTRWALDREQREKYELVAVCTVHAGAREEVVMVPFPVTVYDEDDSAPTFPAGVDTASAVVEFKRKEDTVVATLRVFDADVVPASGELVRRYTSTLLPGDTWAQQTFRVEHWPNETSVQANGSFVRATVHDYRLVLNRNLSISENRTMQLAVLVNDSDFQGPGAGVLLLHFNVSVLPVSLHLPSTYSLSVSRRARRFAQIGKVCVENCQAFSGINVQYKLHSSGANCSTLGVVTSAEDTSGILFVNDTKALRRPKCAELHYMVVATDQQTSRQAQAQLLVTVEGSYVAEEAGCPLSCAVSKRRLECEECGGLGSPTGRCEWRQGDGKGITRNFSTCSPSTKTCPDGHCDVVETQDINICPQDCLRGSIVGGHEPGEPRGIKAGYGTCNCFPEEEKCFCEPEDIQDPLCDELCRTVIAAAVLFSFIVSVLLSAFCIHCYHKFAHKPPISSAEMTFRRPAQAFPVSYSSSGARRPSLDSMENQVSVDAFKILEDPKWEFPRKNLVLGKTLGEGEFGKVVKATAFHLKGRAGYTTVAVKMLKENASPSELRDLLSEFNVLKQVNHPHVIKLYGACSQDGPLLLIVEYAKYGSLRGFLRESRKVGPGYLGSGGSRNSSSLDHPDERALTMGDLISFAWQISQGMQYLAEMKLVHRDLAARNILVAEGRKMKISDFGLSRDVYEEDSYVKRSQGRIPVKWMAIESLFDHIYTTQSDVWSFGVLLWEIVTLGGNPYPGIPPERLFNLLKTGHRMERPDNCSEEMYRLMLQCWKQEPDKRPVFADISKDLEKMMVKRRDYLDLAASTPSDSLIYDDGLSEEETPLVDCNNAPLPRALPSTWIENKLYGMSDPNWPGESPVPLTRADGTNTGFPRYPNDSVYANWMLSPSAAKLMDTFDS
Myc-tagged RET-C634W (P07949, form named): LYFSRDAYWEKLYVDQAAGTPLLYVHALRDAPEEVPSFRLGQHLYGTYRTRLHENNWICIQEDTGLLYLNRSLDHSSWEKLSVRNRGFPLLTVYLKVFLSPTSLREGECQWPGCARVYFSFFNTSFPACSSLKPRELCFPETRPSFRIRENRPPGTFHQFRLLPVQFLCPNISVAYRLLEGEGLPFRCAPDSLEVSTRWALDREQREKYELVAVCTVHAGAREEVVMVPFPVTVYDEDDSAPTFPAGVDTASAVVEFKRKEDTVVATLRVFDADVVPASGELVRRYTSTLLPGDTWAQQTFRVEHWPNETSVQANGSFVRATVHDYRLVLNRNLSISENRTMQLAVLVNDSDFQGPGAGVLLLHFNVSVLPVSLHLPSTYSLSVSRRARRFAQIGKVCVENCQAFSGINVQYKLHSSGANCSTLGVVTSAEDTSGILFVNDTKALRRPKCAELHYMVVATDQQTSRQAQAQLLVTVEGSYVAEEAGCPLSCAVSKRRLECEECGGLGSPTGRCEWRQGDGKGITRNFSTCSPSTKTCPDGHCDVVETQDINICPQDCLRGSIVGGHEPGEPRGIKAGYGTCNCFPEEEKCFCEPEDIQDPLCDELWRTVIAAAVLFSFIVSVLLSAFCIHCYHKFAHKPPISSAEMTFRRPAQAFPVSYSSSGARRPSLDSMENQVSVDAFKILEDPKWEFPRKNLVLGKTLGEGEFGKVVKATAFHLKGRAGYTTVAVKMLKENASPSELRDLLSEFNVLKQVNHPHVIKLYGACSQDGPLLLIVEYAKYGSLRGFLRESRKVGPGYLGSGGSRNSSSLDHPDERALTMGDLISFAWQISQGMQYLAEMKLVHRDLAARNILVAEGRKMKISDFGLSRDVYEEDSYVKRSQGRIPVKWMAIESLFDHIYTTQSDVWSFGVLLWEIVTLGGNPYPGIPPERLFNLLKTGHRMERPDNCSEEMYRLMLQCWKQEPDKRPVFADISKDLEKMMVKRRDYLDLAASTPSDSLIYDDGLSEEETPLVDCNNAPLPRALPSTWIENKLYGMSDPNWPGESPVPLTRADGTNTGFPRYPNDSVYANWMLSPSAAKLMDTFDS
Myc-tagged RET-K758M (P07949, form named): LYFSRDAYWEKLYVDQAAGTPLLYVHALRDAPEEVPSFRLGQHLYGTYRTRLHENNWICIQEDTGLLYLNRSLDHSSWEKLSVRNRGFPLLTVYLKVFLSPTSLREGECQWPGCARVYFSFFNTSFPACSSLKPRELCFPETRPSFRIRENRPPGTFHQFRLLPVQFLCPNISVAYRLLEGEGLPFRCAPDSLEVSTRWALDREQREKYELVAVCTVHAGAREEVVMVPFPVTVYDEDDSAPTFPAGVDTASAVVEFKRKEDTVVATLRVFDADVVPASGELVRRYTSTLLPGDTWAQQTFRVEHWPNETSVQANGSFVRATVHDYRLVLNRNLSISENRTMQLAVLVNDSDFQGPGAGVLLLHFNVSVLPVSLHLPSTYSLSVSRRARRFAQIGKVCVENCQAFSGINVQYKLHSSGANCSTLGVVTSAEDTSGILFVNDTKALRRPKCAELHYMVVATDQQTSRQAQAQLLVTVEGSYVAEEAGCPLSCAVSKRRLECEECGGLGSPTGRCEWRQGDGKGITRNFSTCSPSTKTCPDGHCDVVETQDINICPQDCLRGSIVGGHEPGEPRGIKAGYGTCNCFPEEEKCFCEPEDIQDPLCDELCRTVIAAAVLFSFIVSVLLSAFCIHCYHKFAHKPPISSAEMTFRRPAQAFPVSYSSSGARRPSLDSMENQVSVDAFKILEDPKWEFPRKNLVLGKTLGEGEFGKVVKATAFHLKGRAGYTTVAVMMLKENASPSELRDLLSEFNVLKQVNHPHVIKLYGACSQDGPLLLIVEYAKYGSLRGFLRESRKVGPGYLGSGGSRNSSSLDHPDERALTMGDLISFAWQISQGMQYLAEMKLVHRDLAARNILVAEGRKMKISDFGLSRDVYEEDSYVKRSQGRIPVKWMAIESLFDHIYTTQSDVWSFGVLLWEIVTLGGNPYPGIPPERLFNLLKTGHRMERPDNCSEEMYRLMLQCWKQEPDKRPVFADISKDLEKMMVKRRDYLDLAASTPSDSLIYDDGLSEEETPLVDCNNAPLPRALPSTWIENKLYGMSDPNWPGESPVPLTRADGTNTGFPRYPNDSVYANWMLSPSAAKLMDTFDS
Myc-tagged RET-M918T (P07949, form named): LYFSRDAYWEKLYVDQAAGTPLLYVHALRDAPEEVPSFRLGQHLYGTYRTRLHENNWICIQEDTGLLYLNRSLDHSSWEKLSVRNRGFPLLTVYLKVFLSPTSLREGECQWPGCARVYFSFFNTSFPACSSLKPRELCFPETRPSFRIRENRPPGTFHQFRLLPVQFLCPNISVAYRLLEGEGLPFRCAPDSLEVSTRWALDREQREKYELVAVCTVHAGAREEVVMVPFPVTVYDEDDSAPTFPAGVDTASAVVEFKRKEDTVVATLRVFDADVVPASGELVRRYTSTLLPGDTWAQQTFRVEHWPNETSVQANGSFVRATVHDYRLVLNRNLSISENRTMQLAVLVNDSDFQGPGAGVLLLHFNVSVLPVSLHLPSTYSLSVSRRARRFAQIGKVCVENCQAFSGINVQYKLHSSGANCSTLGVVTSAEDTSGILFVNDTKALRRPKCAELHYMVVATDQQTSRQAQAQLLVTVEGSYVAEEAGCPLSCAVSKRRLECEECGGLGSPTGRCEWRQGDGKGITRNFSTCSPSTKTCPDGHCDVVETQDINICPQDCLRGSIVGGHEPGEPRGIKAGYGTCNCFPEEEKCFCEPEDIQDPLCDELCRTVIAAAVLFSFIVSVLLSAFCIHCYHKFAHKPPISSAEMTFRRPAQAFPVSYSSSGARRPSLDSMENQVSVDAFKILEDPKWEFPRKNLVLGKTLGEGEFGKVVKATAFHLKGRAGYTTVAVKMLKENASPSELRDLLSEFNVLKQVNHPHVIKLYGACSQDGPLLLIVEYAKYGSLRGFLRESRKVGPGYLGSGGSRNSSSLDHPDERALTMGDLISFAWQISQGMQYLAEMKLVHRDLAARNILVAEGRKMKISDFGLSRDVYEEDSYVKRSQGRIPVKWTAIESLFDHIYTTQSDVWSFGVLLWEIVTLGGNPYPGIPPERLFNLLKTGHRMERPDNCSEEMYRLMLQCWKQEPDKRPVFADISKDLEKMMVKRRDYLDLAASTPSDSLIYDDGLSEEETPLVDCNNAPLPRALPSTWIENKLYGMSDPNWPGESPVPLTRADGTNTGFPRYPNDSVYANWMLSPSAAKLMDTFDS
UniProt P18848: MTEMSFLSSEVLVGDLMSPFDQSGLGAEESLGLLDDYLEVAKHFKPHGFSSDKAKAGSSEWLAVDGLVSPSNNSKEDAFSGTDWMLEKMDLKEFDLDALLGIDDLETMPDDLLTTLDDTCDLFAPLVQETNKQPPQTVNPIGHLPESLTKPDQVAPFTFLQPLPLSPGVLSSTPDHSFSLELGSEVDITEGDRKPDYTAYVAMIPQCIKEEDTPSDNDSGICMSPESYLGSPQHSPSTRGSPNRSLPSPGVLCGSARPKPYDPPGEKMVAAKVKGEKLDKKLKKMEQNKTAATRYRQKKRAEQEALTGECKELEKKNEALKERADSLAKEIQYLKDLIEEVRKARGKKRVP
UniProt P11021, residues 19-654: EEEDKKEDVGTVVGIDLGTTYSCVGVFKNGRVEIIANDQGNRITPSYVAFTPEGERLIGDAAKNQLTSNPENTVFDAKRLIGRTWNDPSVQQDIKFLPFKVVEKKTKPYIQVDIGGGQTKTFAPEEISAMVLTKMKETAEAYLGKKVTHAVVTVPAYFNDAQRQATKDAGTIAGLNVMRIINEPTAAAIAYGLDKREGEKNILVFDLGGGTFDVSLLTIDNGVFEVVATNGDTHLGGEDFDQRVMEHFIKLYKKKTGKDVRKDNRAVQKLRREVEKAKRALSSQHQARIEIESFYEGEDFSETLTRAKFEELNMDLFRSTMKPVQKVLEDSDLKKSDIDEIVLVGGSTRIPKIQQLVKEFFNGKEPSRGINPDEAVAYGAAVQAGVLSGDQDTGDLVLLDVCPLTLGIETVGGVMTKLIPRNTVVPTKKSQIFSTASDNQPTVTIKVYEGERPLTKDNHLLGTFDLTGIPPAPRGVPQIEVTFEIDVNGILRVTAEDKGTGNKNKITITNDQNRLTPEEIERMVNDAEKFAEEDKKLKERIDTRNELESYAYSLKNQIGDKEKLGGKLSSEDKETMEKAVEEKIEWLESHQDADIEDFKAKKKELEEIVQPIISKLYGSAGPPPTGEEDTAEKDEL

HA-Cbl-c [5] = biological target: T1, HA-Cbl-c; test: co-IP; U-2 OS/BTZ cells with HA-Cbl-c, with or without FLAG-ATF4, treated with 20 μM MG132 for 4 h; endogenous RET found with HA-Cbl-c
[6] = biological target: Myc-tagged full-length RET (long isoform, RET 51), wild type (UniProt P07949); test: co-IP; HEK293T cells with ectopic HA-Cbl-c, FLAG-ATF4 and Myc-RET (Figure S5G); also with Cbl-c overexpressed or knocked down (Figure S5H); bait not told

HA-GRP78 (from UniProt P11021 19-654) was tested. Which binding [1] did it give?
The binding was “binds”.

And the binding (Myc-tagged RET-G93S)?
The binding was “binds”.

And the binding [2]?
The binding was “binds”.

And the binding [3]?
The binding was “binds”.

“Myc-tagged RET-C634W (from UniProt P07949 29-1114) (receptor)” was tested. Which binding (recombinant GST-ATF4) did it give?
The binding was “binds”.

Which binding (recombinant GST-ATF4) does the source give for “Myc-tagged RET-K758M (from UniProt P07949 29-1114) (receptor)” here?
The binding was “no binding”.

With “Myc-tagged RET-M918T (from UniProt P07949 29-1114) (receptor)” as the molecule, how does the binding (recombinant GST-ATF4) read?
Its binding is “binds”.

For “Myc-tagged full-length RET (long isoform, RET 51), wild type (from UniProt P07949-1 29-1114) (receptor)”, which binding (recombinant GST-ATF4) is on record?
The binding was “binds”.

“endogenous RET of U-2 OS/BTZ cells (from UniProt P07949 29-1114) (receptor)” was tested. Which binding (HA-Cbl-c [4]) did it give?
Its binding is “binds weakly”.

What about the binding (HA-Cbl-c [5]) of the same molecule?
The binding was “binds”.

B1: HA-Cbl-c (enzyme, UniProt Q9ULV8 1-474)
chain: MALAVAPWGRQWEEARALGRAVRMLQRLEEQCVDPRLSVSPPSLRDLLPRTAQLLREVAHSRRAAGGGGPGGPGGSGDFLLIYLANLEAKSRQVAALLPPRGRRSANDELFRAGSRLRRQLAKLAIIFSHMHAELHALFPGGKYCGHMYQLTKAPAHTFWRESCGARCVLPWAEFESLLGTCHPVEPGCTALALRTTIDLTCSGHVSIFEFDVFTRLFQPWPTLLKNWQLLAVNHPGYMAFLTYDEVQERLQACRDKPGSYIFRPSCTRLGQWAIGYVSSDGSILQTIPANKPLSQVLLEGQKDGFYLYPDGKTHNPDLTELGQAEPQQRIHVSEEQLQLYWAMDSTFELCKICAESNKDVKIEPCGHLLCSCCLAAWQHSDSQTCPFCRCEIKGWEAVSIYQFHGQATAEDSGNSSDQEGRELELGQVPLSAPPLPPRPDLPPRKPRNAQPKVRLLKGNSPPAALGPQDPAPA
How did the binding [6] turn out when B1 was run?
Its binding is “binds”.

Source: PMC6735522
